Laboratory results from PubChem BioAssay AID2147 (National Center for Advancing Translational Sciences (NCATS), 2009).
Hit rate of the full screen: of about 230,000 compounds, about 3,600 (1.6%) were called active. The shares of active, inactive and inconclusive entries below differ from those in the screen. Calls follow the shape of the dose curve; as a rule, active = well fitted inhibition curve with a large enough effect (not every such curve was filed as active); inconclusive = small, poorly fitted or top-dose-only effect, or another doubt; inactive = no such curve, though single readings can be large or run the other way. Potencies beside an inconclusive call are fits to weak or partial responses and may not hold up.

Target: Lysine-specific demethylase 4E (Homo sapiens) (UniProt B2RXH2)
Experiment: qHTS Assay for Inhibitors of Human Jumonji Domain Containing 2E (JMJD2E)
Conditions: JMJD2E catalytic domain, FDH-coupled NADH fluorescence (FDH is formaldehyde dehydrogenase); series mostly up to 57.1 µM; activity change, negative = inhibition: at the top concentration
Also: nearly all actives have a fitted effect of over 50% in size.
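For activity change, negative = inhibition in this document: 0% = wells with enzyme and -100% = buffer wells without enzyme.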
Potency is read from the fitted curve at half-maximal effect; tags tell the direction and shape of the fitted curve.

Sequence of UniProt B2RXH2 (B2RXH2 whole entry, looked up, the tested form may be a part): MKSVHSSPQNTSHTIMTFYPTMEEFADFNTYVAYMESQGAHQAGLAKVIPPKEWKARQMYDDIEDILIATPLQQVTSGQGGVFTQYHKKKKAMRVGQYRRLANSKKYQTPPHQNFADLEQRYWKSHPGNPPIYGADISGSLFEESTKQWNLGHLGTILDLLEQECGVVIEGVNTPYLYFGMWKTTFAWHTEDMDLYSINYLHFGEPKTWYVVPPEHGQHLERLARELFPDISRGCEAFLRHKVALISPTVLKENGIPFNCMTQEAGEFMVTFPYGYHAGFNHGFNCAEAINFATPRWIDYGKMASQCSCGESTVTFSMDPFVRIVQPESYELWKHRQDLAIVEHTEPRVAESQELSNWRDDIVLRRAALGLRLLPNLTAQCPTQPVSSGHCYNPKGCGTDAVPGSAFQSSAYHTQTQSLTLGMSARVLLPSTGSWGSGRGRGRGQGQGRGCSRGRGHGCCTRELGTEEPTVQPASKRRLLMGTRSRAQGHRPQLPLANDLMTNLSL

SMILES | activity change, negative = inhibition | Potency
CCCCn1cnc2c(sc3nc4c(cc32)CSC(C)(C)C4)c1=O | inactive: 0.362% | –
Nc1nsnc1C(=O)NCCO | – | inconclusive: 31.6 µM [inhibitor, partial curve]
Cc1ccc2c(c1)c1c(n2C)C(=O)CCC1 | – | inconclusive: 3.98 µM [inhibitor, full curve]
CC(C(=O)N1CCOCC1)N1c2cccc3cccc(c23)S1(=O)=O (centres undefined) | – | inconclusive: 28.2 µM [inhibitor, single point]
C=CCN(CC=C)C(=S)Nc1ccc2nsnc2c1 | – | inconclusive: 25.1 µM [inhibitor, single point]
Cc1ccc(N(CC(=O)N/N=C/c2cccc(Br)c2)S(C)(=O)=O)cc1 | inactive: 15.6% | –
Oc1ccc(N2CCN(C(=S)NCc3ccccc3)CC2)cc1 | inactive: -10.7% | –
N#Cc1ccc(Cl)cc1NC(=O)CSc1nc2nc(-c3cccs3)cc(C(F)(F)F)c2c(=O)[nH]1 | – | inconclusive: 31.6 µM [inhibitor, partial curve]
CNC(=S)NCc1ccc2[nH]c3c(c2c1)CCCC3 | inactive: 7.82% | –
COC(=O)C(=Nc1ccccc1)/C(C(=O)C(=O)N(C)c1ccccc1)=C(\O)c1ccc(Cl)cc1 | – | inconclusive: 39.8 µM [inhibitor, single point]
CCN1CCSc2ccc(C(=O)Nc3ccc(NC(C)=O)cc3)cc21 | – | inconclusive: 31.6 µM [inhibitor, partial curve]
COc1ccc(-c2nn(-c3ccccc3)cc2/C=N/NC(=O)c2cccc(S(=O)(=O)Nc3ccccc3OC)c2)cc1 | – | inconclusive: 22.4 µM [inhibitor, partial curve]
CC(=O)Nc1cccc(-c2nc3ccc(NC(C)=O)cc3[nH]2)c1 | – | inconclusive: 28.2 µM [inhibitor, partial curve]
N#Cc1cc(C#N)c(N2CCN(c3cccc(Cl)n3)CC2)nc1N | – | inconclusive: 35.5 µM [inhibitor, single point]
Cc1ccc(C(C(=O)NC(C)(C)C)N(Cc2ccccc2)C(=O)c2snc(C(N)=O)c2N)o1 (centres undefined) | – | inconclusive: 31.6 µM [inhibitor, partial curve]
O=c1oc(-c2ccco2)nc2sc3c(c12)CCCC3 | – | inconclusive: 35.5 µM [inhibitor, single point]
CCOC(=O)C1=C(C)NC(C)=C(C(=O)OCC)C1/C=C/c1ccccc1OC | – | inconclusive: 28.2 µM [inhibitor, partial curve]
O=C(Nc1ccc(N2CCOCC2)c(F)c1)c1ccncc1 | inactive: -4.14% | –
CN(C(=O)CSc1nc2cc(C(=O)O)ccc2c(=O)n1Cc1ccccc1)C1CCS(=O)(=O)C1 (centres undefined) | – | inconclusive: 39.8 µM [inhibitor, single point]
Cc1ccc(C(=O)Nc2cnc3ccccc3c2)cc1 | – | inconclusive: 31.6 µM [inhibitor, single point]
CC1(C)Cc2c(C#N)c(N3CCN(C(=O)c4ccccc4Cl)CC3)nc(-c3ccco3)c2CS1 | – | inconclusive: 22.4 µM [inhibitor, partial curve]
CCOc1ccc2nc(NC(=O)CSc3nc4c(c(=O)n(C)c(=O)n4C)n3C(C)C)sc2c1 | inactive: 1.41% | –
COc1ccc(/C=C(\CC(=O)O)c2nc3ccccc3o2)cc1 | – | inconclusive: 25.1 µM [inhibitor, single point]

SMILES | activity change, negative = inhibition | Potency
COC(=O)c1ccc2c(c1)S(=O)(=O)NC(=NCc1ccco1)S2 | inactive: -1.38% | –
NC(=O)c1nsnc1-c1ccccc1O | inactive: -10.5% | –
COc1ccc(/C=N/NC(=O)c2sccc2OCc2ccc(F)cc2)cc1OC | – | inconclusive: 35.5 µM [inhibitor, single point]
CCOC(=O)C1=C(c2ccccc2)OC(N)=C(C#N)C1c1ccc(Br)s1 (centres undefined) | – | inconclusive: 35.5 µM [inhibitor, single point]
Cc1nc(N2CCN(Cc3ccc4c(c3)OCO4)CC2)nc2c1C(=O)CC(c1ccco1)C2 (centres undefined) | – | inconclusive: 39.8 µM [inhibitor, single point]
CC(C)Cn1c2c(c(O)c(C(=O)Nc3nccs3)c1=O)CCCC2 | – | inconclusive: 39.8 µM [inhibitor, single point]
COc1ccc(-c2cccc(C3CC=CC4C3C(=O)N(Cc3ccccc3)C4c3cc(C)ccc3F)c2)cc1 (centres undefined) | – | inconclusive: 31.6 µM [inhibitor, single point]
CCOC(=O)CN(C(=O)CSc1nnc(-c2ccncc2)n1CCCN(C)C)c1ccccc1 | – | inconclusive: 39.8 µM [inhibitor, single point]
CCN(CC)S(=O)(=O)c1ccc(N(C)Cc2ccc(C(F)(F)F)cc2)nc1 | – | inconclusive: 39.8 µM [inhibitor, single point]
CSc1sc(C(=O)NNC(C)=O)c2c1C=CCC2 | – | inconclusive: 39.8 µM [inhibitor, partial curve]
O=C(O)CN1C(=O)c2cccc3cccc(c23)C1=O | – | inconclusive: 22.4 µM [inhibitor, partial curve]
CCCc1cc(=O)oc2cc(C)cc(OCC(=O)O)c12 | – | inconclusive: 31.6 µM [inhibitor, partial curve]
Cc1ccc(C)c(Nc2nc3c(S(=O)(=O)c4ccccc4)nnn3c3ccccc23)c1 | – | inconclusive: 0.708 µM [inhibitor, single point]
Oc1ccc(C=Nc2cccc3ncccc23)c(O)c1 | – | inconclusive: 39.8 µM [inhibitor, single point]
COc1ccc2c(c1)c1nc(SCC(C)C)n(CCO)c(=O)c1n2C | – | inconclusive: 25.1 µM [inhibitor, partial curve]
CC[N+](C)(CC)CCOC(=O)C1c2ccccc2Oc2ccccc21 | inactive: 5.09% [at 25.5 µM] | –
COc1ccccc1-n1ccnc1SCC(=O)NC1CCCC1 | inactive: 6.59% | –
Cc1cc(C)nc(N(C#N)S(=O)(=O)c2ccccc2Cl)n1 | – | inconclusive: 39.8 µM [inhibitor, single point]
COc1ccccc1-c1nc(C#N)c(N2CCC(Cc3ccccc3)CC2)o1 | – | inconclusive: 12.6 µM [inhibitor, partial curve]
COc1ccc(-c2cc(NCc3ccccn3)n3ncnc3n2)cc1 | – | inconclusive: 35.5 µM [inhibitor, single point]
N#Cc1cc(NC(=O)c2ccc(F)cc2)c(=O)n2c1[nH]c1ccccc12 | – | inconclusive: 39.8 µM [inhibitor, single point]
CCCCNc1c([N+](=O)[O-])cc(C)cc1[N+](=O)[O-] | inactive: 0.756% | –
COc1cc(/C=C2\SC(=O)N(Cc3ccc(Cl)cc3)C2=O)cc([N+](=O)[O-])c1O | – | inconclusive: 35.5 µM [inhibitor, single point]

SMILES | activity change, negative = inhibition | Potency
CCOC(=O)c1c(C)[nH]c(C)c1C(=O)COc1ncnc2cc([N+](=O)[O-])ccc12 | inactive: -9.57% | –
Cc1ccc(C)c2[nH]c(=O)c(CCNC(=O)CC(C)(C)C)cc12 | – | inconclusive: 28.2 µM [inhibitor, single point]
CCOC(=O)c1ccc(Oc2cn[nH]c2-c2ccc(O)cc2O)cc1 | – | inconclusive: 39.8 µM [inhibitor, single point]
COc1ccc(N2C(=O)C(Cl)=C(N3CCCC3)C2=O)cc1 | inactive: 1.52% | –
O=C(/C=C/c1ccc([N+](=O)[O-])cc1)NCCc1ccccc1 | inactive: 0.123% | –
O=C(CCNc1n[nH]c(=O)[nH]c1=O)N/N=C/c1ccc(C(F)(F)F)cc1 | inactive: 1.48% | –
Brc1ccc(OCc2ccccc2)c(CNCc2ccncc2)c1 | inactive: -4.31% | –
CC(=O)Oc1cc(OC(C)=O)c2c(C)cc(=O)oc2c1 | – | inconclusive: 31.6 µM [inhibitor, partial curve]
CCC(CC)C(=O)c1c[nH]c(C(=O)NN)c1 | inactive: 34.2% | –
O=S(=O)(Nc1nc2ccccc2nc1Cl)c1ccc(F)cc1 | – | inconclusive: 31.6 µM [inhibitor, single point]
O=C(N/N=C\c1cn[nH]c1-c1ccc(Cl)cc1)c1cccs1 | – | inconclusive: 39.8 µM [inhibitor, single point]
Cc1cc(=O)n2[nH]nnc2n1 | – | inconclusive: 10 µM [inhibitor, partial curve]
Cc1ccc(-n2nnnc2-c2cnc3cc4c(cc3c2C)OCO4)cc1 | – | inconclusive: 25.1 µM [inhibitor, single point]
O=C(Nc1cccc([N+](=O)[O-])c1)c1ccc2nc(N3C(=O)CCC3=O)sc2c1 | inactive: -6.46% | –
O=C(N/N=C/C1CC2CCC1C2)c1c[nH]c2ccccc12 (centres undefined) | inactive: 69.4% | –
CS(=O)(=O)NN1C(=O)c2ccccc2NC12CCCC2 | – | inconclusive: 28.2 µM [inhibitor, partial curve]
O=C(c1cc(Sc2ccc(Cl)cc2)nc2ccccc12)N1CCN(c2ccccn2)CC1 | – | inconclusive: 39.8 µM [inhibitor, single point]
COc1ccc(/C=N/NC(=O)c2ccc(F)cc2)cc1CN1CCc2cc(OC)c(OC)cc2C1C (centres undefined) | – | inconclusive: 28.2 µM [inhibitor, single point]
COCCOC(=O)C1=C(C)NC2=C(C(=O)CCC2)C1c1ccc(N(C)C)cc1 (centres undefined) | – | inconclusive: 28.2 µM [inhibitor, partial curve]
CCOc1ccc(NCc2cc3cc(OC)ccc3[nH]c2=O)cc1 | – | inconclusive: 15.8 µM [inhibitor, partial curve]
CCCN1C(=O)/C(=C/c2nc3ccccc3c(=O)[nH]2)c2ccccc21 | – | inconclusive: 25.1 µM [inhibitor, single point]
CCCC(=O)Nc1c(-c2ccc(OC)cc2)c(=O)c2ccccc2n1C | – | inconclusive: 22.4 µM [inhibitor, partial curve]
COc1ccc(-c2cn3cc(C(F)(F)F)cc(Cl)c3n2)cc1 | – | inconclusive: 28.2 µM [inhibitor, partial curve]
